Results from PubChem BioAssay AID686979 (National Center for Advancing Translational Sciences (NCATS), 2013).
Screen size: about 420,000 compounds; about 50,000 (12%) were called active. This list was built around the results that the source calls inconclusive (neither active nor inactive); the mix of calls is not that of the screen. The call rests on the fitted dose curve; in most records, active means well fitted inhibition curve with a large enough effect; inconclusive means small, poorly fitted or top-dose-only effect; inactive means flat fitted curve, though single readings scatter. Potencies of inconclusive entries are left out as doubtful fits.

assay: qHTS for Inhibitors of human tyrosyl-DNA phosphodiesterase 1 (TDP1): qHTS in cells in presence of CPT; conditions: chicken DT40 Tdp1-/-;hTDP1 cells + 20 nM CPT, ATP luminescence, 48 h; activity change, negative = growth inhibition: at 46.2 µM (top of the series); further: nearly all actives have a fitted effect of over 55% in size
Method in brief: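 Cell growth measured by CellTiter-Glo luminescence after a minimum 48 h, 37 C compound exposure with 20 nM CPT in Tdp1-knockout DT40 cells stably expressing hTDP1, seeded 400/well; qHTS titration format.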
On the % scale 0 is the no-effect control and ±100 the full control effect; potency means the concentration at half of the fitted maximal effect; tags describe the fitted curve by direction and shape.

Question: Which Potency does the source give for `CCCCC(NC(C)=O)c1nc2ccccc2n1CCC` (stereo not drawn) here?
Answer: inconclusive [inhibitor, full curve]

Question: With `COc1ccccc1NS(=O)(=O)c1cc([N+](=O)[O-])ccc1N/N=C/c1c(C)[nH]c2ccccc12` as the compound, how does the Potency read?
Answer: inconclusive [inhibitor, single point]

Question: For `O=C(CN(c1ccc(F)cc1)S(=O)(=O)c1ccc2c(c1)OCCO2)Nc1ccc2c(c1)OCO2`, which Potency is on record?
Answer: inconclusive [inhibitor, partial curve]

Question: Which Potency does the source give for `O=c1c(-c2cc(F)cc(F)c2)nc2cnc(Oc3ccccc3)nc2n1C[C@H]1CCCO1` here?
Answer: inconclusive [inhibitor, single point]

Question: With `COCCCn1cc(CN2CC(N3CCCCC3)CS2(=O)=O)nn1` (stereo not drawn) as the compound, how does the Potency read?
Answer: inactive

Question: For `O=C(Nc1ccccc1C(=O)Nc1ccc(Br)cn1)c1cccc([N+](=O)[O-])c1`, which Potency is on record?
Answer: inconclusive [inhibitor, partial curve]

Question: For `COc1ccc(-c2oc(NC(=O)CCl)c(C#N)c2-c2ccc(OC)cc2)cc1`, which Potency is on record?
Answer: active: 6.51 µM

Question: For `CC(C)(C)c1ccc(C(=O)Nc2cccc([N+](=O)[O-])c2)cc1`, which Potency is on record?
Answer: active: 16.4 µM

Question: Which Potency does the source give for `Cc1cc2c(cc1C)NC(CC(=O)Nc1ccccc1SC(F)(F)F)C(=O)N2` (stereo not drawn) here?
Answer: inconclusive [inhibitor, single point]

Question: With `Cc1ccc2[nH]c(=O)c(CN(CC3CCCO3)S(=O)(=O)c3c(C)ccc4nsnc34)cc2c1` (stereo not drawn) as the compound, how does the Potency read?
Answer: inconclusive [inhibitor, single point]

Question: For `COCCNC(=O)C1(C)CCCN(Cc2csc3ccccc23)C1` (stereo not drawn), which Potency is on record?
Answer: inconclusive [inhibitor, single point]

Question: Which activity change, negative = growth inhibition does the source give for `COCCN(C(=O)CCC(=O)Nc1cc(C)on1)C(C(=O)NC1CCCC1)c1ccc(C)cc1` (stereo not drawn) here?
Answer: inconclusive: -4.3% [inhibitor]

Question: For `CC1CCCCN1C(=O)CSc1nc(C2CC2)nc2ccccc12` (stereo not drawn), which Potency is on record?
Answer: inconclusive [inhibitor, single point]

Question: Which Potency does the source give for `O=C(COC(=O)c1ccccc1C(=O)c1ccc(Cl)cc1)NC(c1ccccc1)c1ccccc1` here?
Answer: active: 11.6 µM

Question: Which Potency does the source give for `CCOC(=O)N1CCC(NC(=O)CS(=O)(=O)Cc2nc(-c3cccc(Cl)c3)oc2C)CC1` here?
Answer: inactive

Question: Which Potency does the source give for `NC(=O)NC(CC(=O)NCCCc1ccccc1)c1ccc(Cl)cc1` (stereo not drawn) here?
Answer: inactive

Question: Which Potency does the source give for `COc1cccc(OC)c1C(=O)OCC(=O)NCCCc1ccccc1` here?
Answer: inconclusive [inhibitor, single point]

Question: For `O=C(CCC1N=C2c3ccccc3N=C(SCc3ccc(Cl)cc3)N2C1=O)NCc1ccco1` (stereo not drawn), which Potency is on record?
Answer: inconclusive [inhibitor, single point]

Question: For `COc1ccc2ncc3c(-c4ccc(C)c(C)c4)nn(CC(=O)NC4CCCCC4)c3c2c1`, which Potency is on record?
Answer: active: 8.2 µM

Question: For `COc1ccc(CCN(C)C(=O)COc2ccc(C(=O)c3ccccc3)cc2)cc1OC`, which Potency is on record?
Answer: inconclusive [inhibitor, single point]

Question: With `C[C@@H]1CN([C@@H](C)CO)S(=O)(=O)c2ccc(-c3ccc(C#N)cc3)cc2O[C@@H]1CN(C)Cc1ccccn1` as the compound, how does the Potency read?
Answer: inconclusive [inhibitor, single point]

Question: With `Cc1ccc(-c2nc(-c3cccnc3)no2)c(C)c1` as the compound, how does the Potency read?
Answer: inactive

Question: With `COc1ccc2nc3sc(C(=O)NCCCN4CCc5ccccc5C4)cc3cc2c1` as the compound, how does the Potency read?
Answer: inconclusive [inhibitor, single point]

Question: With `CC(C)CC1C(=O)N(Cc2cn(Cc3ccco3)nn2)CCS(=O)(=O)N1Cc1ccc(-c2ccc(F)cc2)cc1` (stereo not drawn) as the compound, how does the Potency read?
Answer: inconclusive [inhibitor, single point]

Question: For `COc1ccc(S(=O)(=O)N(C)C[C@H]2Oc3ccc(NS(=O)(=O)c4ccc(F)cc4)cc3C(=O)N([C@H](C)CO)C[C@@H]2C)cc1`, which Potency is on record?
Answer: inconclusive [inhibitor, single point]

Question: With `O=C(NCC1CCCO1)c1cc(C(=O)c2ccc(Cl)cc2Cl)c[nH]1` (stereo not drawn) as the compound, how does the Potency read?
Answer: inconclusive [inhibitor, single point]

Question: Which Potency does the source give for `COc1ccc(CCNC(=O)CCNC(=O)N2CC(=O)Nc3ccccc32)cc1` here?
Answer: inconclusive [inhibitor, single point]

Question: With `CCOc1ccc(Br)cc1CNCCSc1nnnn1-c1ccccc1` as the compound, how does the Potency read?
Answer: active: 18.4 µM

Question: Which Potency does the source give for `NC(C(=O)O)C1ON=C(Cl)C1O` (stereo not drawn) here?
Answer: active: 5.8 µM

Question: For `O=C1NC(SCCCF)=N/C1=C/c1ccc(-n2cncn2)cc1`, which Potency is on record?
Answer: inactive

Question: With `COc1ccc(CNS(=O)(=O)NCc2ccccc2)cc1OC` as the compound, how does the Potency read?
Answer: inconclusive [inhibitor, partial curve, poor fit]

Question: For `O=C(Nc1cc([N+](=O)[O-])ccc1F)c1ccc2ccccc2c1`, which Potency is on record?
Answer: inconclusive [inhibitor, single point]

Question: Which Potency does the source give for `COc1cc(N2CCCC2)c(OC)cc1C=O` here?
Answer: inconclusive [inhibitor, single point]

Question: For `c1ccc2sc(-c3ccc4c(c3)OCO4)nc2c1`, which Potency is on record?
Answer: inconclusive [inhibitor, partial curve, poor fit]

Question: Which Potency does the source give for `CCOC(=O)c1c(NC(=O)CSc2nnc(-c3c[nH]c4ccccc34)n2CCOC)sc2c1CCCCC2` here?
Answer: inconclusive [inhibitor, single point]

Question: With `CC1(C(=O)Nc2ccc3c(c2)OCO3)CCN1C(=O)Cc1cccc2ccccc12` (stereo not drawn) as the compound, how does the Potency read?
Answer: active: 20.6 µM

Question: With `CC(=O)c1ccc(S(=O)(=O)N2CCC(c3nc4ccccc4[nH]3)CC2)cc1` as the compound, how does the Potency read?
Answer: inconclusive [inhibitor, single point]

Question: Which Potency does the source give for `CC(=O)Nc1ccc(S(=O)(=O)N(C)CC(=O)NC2CCCCCCC2)cc1` here?
Answer: inactive

Question: For `CCCCc1cc(=O)oc2cc(OC(C)C(=O)NCCN3CCOCC3)ccc12` (stereo not drawn), which Potency is on record?
Answer: inactive

Question: For `COc1ccc(CNC(=O)CCn2ccc3cc(S(=O)(=O)N4CCCC4)ccc32)cc1`, which Potency is on record?
Answer: inactive

Question: With `CCS(=O)(=O)c1nc(S(=O)(=O)c2ccc(Cl)cc2)c(N2CCN(CCO)CC2)s1` as the compound, how does the Potency read?
Answer: inactive

Question: With `CCOC(=O)c1ccc(NC(=O)C2CCN(S(=O)(=O)c3ccccc3)CC2)cc1` as the compound, how does the Potency read?
Answer: active: 25.9 µM

Question: For `COc1cccc(CNC(=O)C(Cc2ccccc2)n2cccc2)c1` (stereo not drawn), which Potency is on record?
Answer: inconclusive [inhibitor, single point]
